Experimental data taken from PubChem BioAssay AID651820 (National Center for Advancing Translational Sciences (NCATS), 2012).
Among all 340,000 compounds or so, about 12,000 (3.5%) were called active. Inconclusive means that the source gave no clear call. Such entries were picked first, then a sample of the others. Calls follow the shape of the dose curve; as a rule, active = well fitted inhibition curve with a large enough effect; inconclusive = small, poorly fitted or top-dose-only effect, or another doubt; inactive = no such curve, though single readings can be large or run the other way. No potency is given beside an inconclusive call; the fits are too rough.

Test: qHTS Assay for Inhibitors of Hepatitis C Virus (HCV)
Settings: Huh7.5.1 HCVcc-Cre (HCVcc is cell-culture hepatitis C virus) infection, luciferase reporter, 44 h; activity change, negative = inhibition: at 41.8 µM (top of the series)
Procedure, shortened: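 Antiviral activity was scored by luciferase reporter output from cells infected with HCVcc-Cre (~0.5 moi) in presence of compound, 44 h infection period, cells seeded 1,000/well 4 h prior.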
% is scaled to controls: 0 for no effect and ±100 for the full control effect; potency is read from the fitted curve at half-maximal effect; tags tell the direction and shape of the fitted curve.

**Q.** Which Potency does the source give for `Cc1c(CCCN)c2ccccc2n1Cc1ccccc1` here?
**A.** The Potency was active: 11.2 µM.

**Q.** For `COCCN(CC(=O)NCC1CCCO1)C(=O)CCC(=O)Nc1cc(C)on1` (stereo not drawn), which “activity change, negative = inhibition” value is on record?
**A.** Its value is inactive: 3.91%.

**Q.** For `CC(C)(C)c1ccc(NC(=O)N2CCCN(c3ccc([N+](=O)[O-])cn3)CC2)cc1`, which “activity change, negative = inhibition” value is on record?
**A.** Its value is inactive: -76.1%.

**Q.** Which Potency does the source give for `CC(C)N1CCc2c(sc(NC(=O)c3ccc(S(=O)(=O)N(C)CC4CCCO4)cc3)c2C(N)=O)C1` (stereo not drawn) here?
**A.** Its Potency is inconclusive [inhibitor, single point].

**Q.** For `COc1ccc(NC(=O)COc2ccc(-n3cnnn3)cc2)cc1OC`, which Potency is on record?
**A.** The Potency was inconclusive [inhibitor, single point].

**Q.** Which Potency does the source give for `CC(C)OC(=O)c1cc(NC(=O)c2nn(C)cc2Br)cc(C(=O)OC(C)C)c1` here?
**A.** Its Potency is inconclusive [inhibitor, partial curve].

**Q.** Which Potency does the source give for `COc1ccc2c(c1)c(=O)oc1cc(OCC(=O)N3CCc4ccccc4C3)ccc12` here?
**A.** The Potency was inconclusive [inhibitor, partial curve, poor fit].

**Q.** With `COC(=O)N/N=C/c1cn(CCCOc2ccccc2)c2ccccc12` as the compound, how does the Potency read?
**A.** Its Potency is inconclusive [inhibitor, single point].

**Q.** With `CCOc1ccc(NC(=O)CN(C)Cc2ccc3c(c2)OCO3)cc1S(=O)(=O)N1CCCC1` as the compound, how does the Potency read?
**A.** Its Potency is inconclusive [inhibitor, single point].

**Q.** Which Potency does the source give for `COc1cc(C(=O)COC(=O)c2cc([N+](=O)[O-])ccc2N2CCOCC2)ccc1OC(F)F` here?
**A.** Its Potency is active: 1.12 µM.

**Q.** Which “activity change, negative = inhibition” value does the source give for `CCOC(=O)N=Nc1c(O)n(C)c2ccccc12` here?
**A.** The value was inactive: 11.2%.

**Q.** For `S=C(Nc1ccc(-c2nc3ccccc3[nH]2)cc1)Nc1cccnc1`, which Potency is on record?
**A.** Its Potency is inconclusive [inhibitor, single point].

**Q.** Which Potency does the source give for `CC(C)c1ccc(N2C=Nc3ccc(C(C)C)cc3C2)cc1` here?
**A.** Its Potency is inconclusive [inhibitor, partial curve].

**Q.** Which “activity change, negative = inhibition” value does the source give for `Cc1nn(CC(=O)OCC(=O)Nc2ccccc2[N+](=O)[O-])c(C)c1[N+](=O)[O-]` here?
**A.** The value was inactive: 8.78%.

**Q.** With `O=C(NCc1ccc2c(c1)OCO2)c1ccc(N2C(=O)C3CCCCC3C2=O)cc1` (stereo not drawn) as the compound, how does the “activity change, negative = inhibition” value read?
**A.** The value was inactive: -6.41%.

**Q.** For `CN1CCN(c2ccc(Cl)cc2NC(=O)CN2C(=O)NC(C)(c3ccccc3)C2=O)CC1` (stereo not drawn), which Potency is on record?
**A.** Its Potency is inconclusive [inhibitor, single point].

**Q.** For `CC(=O)N1c2ccc(S(=O)(=O)N3CCCC(C(=O)NCc4ccc(Cl)cc4)C3)cc2CC1C` (stereo not drawn), which Potency is on record?
**A.** Its Potency is active: 5.62 µM.

**Q.** Which Potency does the source give for `CN(C)C1(CNC(=O)C2CCN(S(=O)(=O)c3cccc(C(F)(F)F)c3)CC2)CCCCC1` here?
**A.** The Potency was inconclusive [inhibitor, single point].

**Q.** With `COc1ccc(OC)c(NC(=O)NNC(=O)CCCOc2ccc(Cl)cc2C)c1` as the compound, how does the Potency read?
**A.** Its Potency is inconclusive [inhibitor, single point].

**Q.** For `Nc1nc(SCc2ccc(Cl)cc2Cl)n[nH]1`, which “activity change, negative = inhibition” value is on record?
**A.** Its value is inactive: 5.58%.

**Q.** For `COc1cccc(OCc2nnc(SCC(=O)NCc3ccco3)n2CCc2ccccc2)c1`, which Potency is on record?
**A.** The Potency was inconclusive [inhibitor, single point].

**Q.** Which Potency does the source give for `Cc1ccc(NC(=O)C2CCCN2S(=O)(=O)c2cccc3cccnc23)c(C)c1` (stereo not drawn) here?
**A.** Its Potency is inconclusive [inhibitor, single point].

**Q.** For `NS(=O)(=O)c1ccc(CCNC(=O)c2cc(-c3ccco3)nc3ccccc23)cc1`, which Potency is on record?
**A.** The Potency was inconclusive [inhibitor, single point].

**Q.** Which “activity change, negative = inhibition” value does the source give for `CC(=O)Nc1ccc(SCC(=O)c2cc(C)n(-c3ccccc3)c2C)cc1` here?
**A.** The value was inactive: -1.35%.

**Q.** For `O=C(NCCN1C(=O)S/C(=C\c2cccnc2)C1=O)c1ccc(S(=O)(=O)N2CCCC2)cc1`, which Potency is on record?
**A.** Its Potency is inconclusive [inhibitor, partial curve].

**Q.** Which Potency does the source give for `Nc1ccc(-c2cnc(N)c(C(=O)c3cccnc3)n2)cn1` here?
**A.** Its Potency is inconclusive [inhibitor, single point].

**Q.** For `COc1ccccc1Nc1ccc(NC(=O)c2cccc([N+](=O)[O-])c2C)cc1`, which Potency is on record?
**A.** The Potency was inconclusive [inhibitor, partial curve, poor fit].

**Q.** Which Potency does the source give for `Cc1nn(-c2ccccn2)c2nc(-c3cccs3)cc(C(=O)NCc3ccco3)c12` here?
**A.** The Potency was active: 35.5 µM.

**Q.** With `CC(=O)Nc1ccc(S(=O)(=O)NC(C)C(=O)OCCOc2ccc(F)cc2)cc1` (stereo not drawn) as the compound, how does the Potency read?
**A.** The Potency was inconclusive [inhibitor, single point].

**Q.** Which Potency does the source give for `COc1cccc(NC(=O)Nc2cccn(Cc3ccccc3)c2=O)c1` here?
**A.** Its Potency is inconclusive [inhibitor, single point].

**Q.** With `O=C(Cc1ccccc1)N/N=C/c1cc(Br)cc(Cl)c1O` as the compound, how does the Potency read?
**A.** Its Potency is inconclusive [inhibitor, single point].

**Q.** Which Potency does the source give for `COc1ccc(-n2cc(-c3ccccc3)c3c(N4CC(C)OC(C)C4)ncnc32)cc1` (stereo not drawn) here?
**A.** Its Potency is inconclusive [inhibitor, single point].

**Q.** With `COc1ccc(C(=O)N(Cc2ccccc2)c2cccc(C)c2)c(OC)c1OC` as the compound, how does the Potency read?
**A.** The Potency was inconclusive [inhibitor, single point].

**Q.** With `CC(=O)N(C1=C(N)C(=O)c2ccccc2C1=O)c1ccccc1` as the compound, how does the “activity change, negative = inhibition” value read?
**A.** Its value is inactive: -23.5%.

**Q.** With `COc1ccc(S(=O)(=O)N2CCOCC2)cc1NC(=O)CCOc1ccc(C(C)(C)C)cc1` as the compound, how does the Potency read?
**A.** Its Potency is inconclusive [inhibitor, single point].

**Q.** Which Potency does the source give for `Cc1ccc(Nc2nc(N)c3ccccc3n2)cc1C` here?
**A.** The Potency was inconclusive [inhibitor, single point].

**Q.** Which “activity change, negative = inhibition” value does the source give for `CCOC(=O)/C=C/C(=O)Nc1ccccc1C(=O)NC1CCCCC1` here?
**A.** Its value is inactive: 1.68%.

**Q.** Which Potency does the source give for `O=C(NC1CC1)c1sc2cc(Cl)ccc2c1Cl` here?
**A.** Its Potency is inconclusive [inhibitor, single point].

**Q.** Which “activity change, negative = inhibition” value does the source give for `O=C(CSc1nnnn1-c1ccccc1)c1ccc(O)cc1O` here?
**A.** Its value is inactive: 8.91%.

**Q.** Which Potency does the source give for `COc1ccccc1-c1nnc(SC(C(=O)c2c[nH]c3ccccc23)c2ccccc2)n1C` (stereo not drawn) here?
**A.** Its Potency is inconclusive [inhibitor, single point].

**Q.** For `CCS(=O)(=O)N1CCN=C1SC(C)c1ccccc1` (stereo not drawn), which “activity change, negative = inhibition” value is on record?
**A.** Its value is inactive: 14.8%.

**Q.** Which Potency does the source give for `Cc1ccccc1OC(C)C(=O)Nc1ccc(S(=O)(=O)N2CCCC2)cc1` (stereo not drawn) here?
**A.** Its Potency is inconclusive [inhibitor, single point].

**Q.** Which Potency does the source give for `CCCN(CC(=O)Nc1ccc(OC)c(OC)c1)CC(=O)Nc1ccc(F)c(F)c1F` here?
**A.** The Potency was inconclusive [inhibitor, partial curve].
